{"source": "PubChem BioAssay AID485344", "about": "(National Center for Advancing Translational Sciences (NCATS), 2010)", "note": "In all, about 340,000 compounds went through this assay and about 6,900 (2%) were called active. Rule as the data show it: active = inhibition above about 30%; inactive = below that, where a call was filed. The entries are a selection whose mix differs from that of the whole data set. The source gives no active or inactive call for entries shown without one.", "data": [{"target": "D(2) dopamine receptor (Homo sapiens) (UniProt P14416)", "sequence (P14416 whole entry, looked up)": "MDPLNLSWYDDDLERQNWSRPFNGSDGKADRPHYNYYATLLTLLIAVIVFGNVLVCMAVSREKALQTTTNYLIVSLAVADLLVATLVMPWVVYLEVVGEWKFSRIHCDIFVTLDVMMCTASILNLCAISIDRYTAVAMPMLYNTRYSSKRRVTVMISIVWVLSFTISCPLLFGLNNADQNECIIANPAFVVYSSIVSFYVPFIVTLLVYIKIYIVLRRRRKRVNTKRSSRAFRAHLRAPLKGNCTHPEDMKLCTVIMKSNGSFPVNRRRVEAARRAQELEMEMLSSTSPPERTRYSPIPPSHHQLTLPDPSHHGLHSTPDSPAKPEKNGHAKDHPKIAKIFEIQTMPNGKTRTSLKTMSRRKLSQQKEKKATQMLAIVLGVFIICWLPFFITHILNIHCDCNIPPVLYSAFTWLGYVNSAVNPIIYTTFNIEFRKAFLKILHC", "test": "HTS Assay for Allosteric Antagonists of the Human D2 Dopamine Receptor: Primary Screen for Antagonists; also: 0% is about no effect", "conditions": "HEK293 TREx D2 cells, calcium flux, dopamine EC80; at 10 µM; stronger effect = higher value", "procedure,_shortened": "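Tetracycline-induced HEK293 TREx cells expressing D2 receptor forced-coupled to calcium signalling, loaded with no-wash calcium dye. Compounds added and calcium flux read 180 s, then dopamine added at EC80 and read a further 180 s.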", "values": [{"smiles": "COC(=O)c1cc2oc3ccccc3c2n1Cc1nc(-c2ccccc2C)oc1C", "inhibition": "13.4%"}, {"smiles": "Cc1ccc(NC(=O)[C@@H](c2ccccc2)N2Cc3ccccc3C2=O)cc1", "inhibition": "-8.77%"}, {"smiles": "CC(C)(C)OC(=O)N1CCC(c2c(C(=O)NCCN3CCC(Cc4ccccc4)CC3)cnn2-c2ccc(F)cc2)CC1", "inhibition": "14.4%"}, {"smiles": "CCOCc1ccccc1Nc1ncnc2onc(-c3ccc(Cl)cc3)c12", "inhibition": "24.1%"}, {"smiles": "CCc1cccc(NC(=O)C(c2ccccc2)N2Cc3ccccc3C2=O)c1", "note": "(stereo unspecified)", "inhibition": "-16.1%"}, {"smiles": "CCC(Sc1nncn2c1cc1oc(C)cc12)C(=O)Nc1ccc(F)cc1", "note": "(stereo unspecified)", "inhibition": "-12.7%"}, {"smiles": "COCCn1c(=N)c(C(=O)NC(C)c2ccccc2)cc2c(=O)n3cc(C)ccc3nc21", "note": "(stereo unspecified)", "inhibition": "9.77%"}, {"smiles": "COc1ccccc1CC(=O)Nc1ccc(S(=O)(=O)N2CCCC2)cc1", "inhibition": "active: 39.2%"}, {"smiles": "N#Cc1c(C(F)(F)F)cc(-c2ccccc2Cl)[nH]c1=O", "inhibition": "active: 44.4%"}, {"smiles": "COc1ccc(CCNC(=O)C(=O)NCC(c2ccco2)S(=O)(=O)c2ccc(F)cc2)cc1", "note": "(stereo unspecified)", "inhibition": "-13.8%"}, {"smiles": "O=C1CCSC2(C(=O)N(Cc3ccc(F)cc3)c3ccccc32)N1c1ccc(F)c(F)c1", "note": "(stereo unspecified)", "inhibition": "8.34%"}, {"smiles": "CCc1ccc(-c2nc(CS(=O)CC(=O)NCCc3ccc(Cl)cc3)c(C)o2)cc1", "note": "(stereo unspecified)", "inhibition": "-2.22%"}, {"smiles": "CS(=O)(=O)N1CCC(N2CCN(Cc3ccccc3)C(=O)C2=O)CC1", "inhibition": "2.77%"}, {"smiles": "CCOc1ccc2oc(=O)cc(CN3CCN(C(=O)c4ccc(F)cc4)CC3)c2c1", "inhibition": "-12.2%"}, {"smiles": "CCNC(=O)CC1C(=O)N(c2cccc(OC)c2)C(=O)N1Cc1ccc(OC)c(OC)c1", "note": "(stereo unspecified)", "inhibition": "-5.58%"}, {"smiles": "Cc1c(C(=O)Nc2cccc(Cl)c2)oc2ccc(S(=O)(=O)N(C)C3CCCCC3)cc12", "inhibition": "23.6%"}, {"smiles": "COc1cccc(NC(=O)Cn2c(=O)n(-c3ccc(C)cc3)c(=O)c3ccc(C(=O)NCc4ccco4)cc32)c1", "inhibition": "-12.3%"}, {"smiles": "Cc1nc2ncnn2c(C)c1CCC(=O)NCc1ccccc1Cl", "inhibition": "-7.81%"}, {"smiles": "CCOc1ccccc1N(CC(=O)N1CCc2ccccc2C1)S(=O)(=O)c1ccccc1", "inhibition": "-0.205%"}, {"smiles": "O=S(=O)(Nc1cccc(-c2ccc(N3CCCCCC3)nn2)c1)c1cccc(F)c1", "inhibition": "-15.9%"}, {"smiles": "CCN(CC)S(=O)(=O)c1ccc2c(c1)c(=O)c(C(=O)N1CCN(c3ccc(F)cc3)CC1)cn2C", "inhibition": "-8.34%"}, {"smiles": "CC(=O)N1CCc2cc(S(=O)(=O)CCC(=O)NCc3ccc(Cl)cc3)ccc21", "inhibition": "1.7%"}, {"smiles": "O=C(Cn1ncc2c3ccccc3n(Cc3cccc(Cl)c3)c2c1=O)NC1CCCCCC1", "inhibition": "1.96%"}, {"smiles": "CCc1ccc(NC(=O)CSC2=Nc3ccccc3C3=NC(CC(=O)NCc4ccccc4)C(=O)N23)cc1", "note": "(stereo unspecified)", "inhibition": "6.14%"}, {"smiles": "CCN1CCSc2ccc(C(=O)NCc3ccc(OC)cc3)cc21", "inhibition": "-7.73%"}, {"smiles": "COC(=O)CCN(c1ccccc1)S(=O)(=O)c1cc(-c2cc(C)no2)ccc1OC", "inhibition": "-1.2%"}, {"smiles": "O=C(NCCCc1ccccc1)C1CCN(C(=O)N2CCOc3ccc(Cl)cc32)CC1", "inhibition": "11.5%"}, {"smiles": "Cn1ccc2c(OCC(=O)Nc3cc(C(F)(F)F)ccc3Cl)cccc2c1=O", "inhibition": "2.07%"}, {"smiles": "COc1ccc(C2C=C(c3ccccc3)Nc3nc(NC(=O)/C=C/c4ccccc4)nn32)cc1", "note": "(stereo unspecified)", "inhibition": "27.3%"}, {"smiles": "COc1ccc(/C=C/C(=O)Nc2ccccc2C(=O)O)cc1", "inhibition": "active: 33.7%"}, {"smiles": "CCOc1ccccc1NC(=O)CCn1nc(C)c(S(=O)(=O)N2CCCCC2)c1C", "inhibition": "2.84%"}, {"smiles": "CCN(CC)S(=O)(=O)c1ccc2oc(C(=O)N(C)Cc3ccccc3)c(C)c2c1", "inhibition": "15.7%"}, {"smiles": "CCCCOc1cccc(C(=O)N(Cc2sccc2C)C2CCS(=O)(=O)C2)c1", "note": "(stereo unspecified)", "inhibition": "7.75%"}, {"smiles": "Cc1cc(Nc2cccc(Cl)c2)nc2ccc(NC(=O)Cc3cccc(C(F)(F)F)c3)cc12", "inhibition": "1.28%"}, {"smiles": "COc1cc(C2CC(=O)Nc3cc4c(cc32)OCCO4)cc(Br)c1OC", "note": "(stereo unspecified)", "inhibition": "4.48%"}, {"smiles": "COc1ccc(Cn2c(=O)c3oc4ccccc4c3n(Cc3ccc(F)cc3)c2=O)cc1", "inhibition": "10.7%"}, {"smiles": "COc1ccc(CNC(=O)c2ccc(NC(=O)N3CCCCc4ccccc43)cc2)cc1", "inhibition": "15.1%"}, {"smiles": "COc1ccc(CNC(=O)c2cc3c(=O)oc4ccc(C)cc4c3s2)c(OC)c1", "inhibition": "13.3%"}, {"smiles": "Cc1cccc(NC(=O)C(=O)NCC(c2ccc3c(c2)OCO3)N2CCN(C)CC2)c1C", "note": "(stereo unspecified)", "inhibition": "-14%"}, {"smiles": "Fc1ccc(-c2noc3ncnc(NC4CCCCC4)c23)cc1", "inhibition": "3.09%"}, {"smiles": "CCc1ccccc1NC(=O)C1=C(C)C(=O)OC12CCCCCC2", "inhibition": "-23.1%"}, {"smiles": "COc1cc(CN2CCN(S(=O)(=O)c3ccccc3)CC2)cc(OC)c1O", "inhibition": "3.75%"}, {"smiles": "COc1ccc(CC(=O)NC(CC(=O)O)c2ccc(OC)cc2)cc1", "note": "(stereo unspecified)", "inhibition": "active: 36.5%"}, {"smiles": "Cc1cc(=O)oc2cc(NC(=O)C(C)Oc3ccc(F)cc3)ccc12", "note": "(stereo unspecified)", "inhibition": "active: 35.3%"}, {"smiles": "O=C(CNS(=O)(=O)c1cccs1)N1CCN(c2cccc(C(F)(F)F)c2)CC1", "inhibition": "3.41%"}, {"smiles": "COc1ccc(CNC(=O)c2ccc(CS(=O)(=O)c3ccccc3OC)o2)cc1", "inhibition": "-2.03%"}, {"smiles": "O=C(NCCc1nc2ccccc2n1Cc1ccc(F)cc1)c1ccco1", "inhibition": "3.43%"}, {"smiles": "CCN(CC)S(=O)(=O)c1ccc2c(c1)N(CC(=O)N1CCN(c3ccc(F)cc3)CC1)C(=O)CO2", "inhibition": "3.53%"}, {"smiles": "Cc1ccc(C)c(-c2[nH]c3c(c2-c2c(-n4cccc4)n(C)c(=O)[nH]c2=O)c(=O)[nH]c(=O)n3C)c1", "inhibition": "-1.28%"}, {"smiles": "Cc1ccc(-c2nc(CCNC(=O)C(=O)Nc3ccc(C)cc3C)cs2)cc1", "inhibition": "-10.4%"}, {"smiles": "OCCN1CCN(c2ncnc3nc[nH]c23)CC1", "inhibition": "active: 33.9%"}, {"smiles": "N#CC1(NC(=O)COC(=O)C2=COCCO2)CCCCC1", "inhibition": "active: 50%"}, {"smiles": "COc1ccc(-n2cc(C(=O)NCc3ccccc3)c3ccccc3c2=O)cc1", "inhibition": "11.6%"}, {"smiles": "O=C(CSc1nc2ccccc2n1Cc1ccccc1)N1CCN(c2ccc(F)cc2)CC1", "inhibition": "5.95%"}, {"smiles": "CCCCN(C)C(=O)c1ccc(S(=O)(=O)N2CCOCC2)cc1", "inhibition": "active: 32.6%"}, {"smiles": "Cc1cc(Cl)ccc1NC(=O)c1cc(S(=O)(=O)N2CCOCC2)cn1C", "inhibition": "2.46%"}, {"smiles": "O=C1CC(c2nc3ccccc3[nH]2)CN1c1cccc(Cl)c1", "note": "(stereo unspecified)", "inhibition": "5.82%"}, {"smiles": "CCCC(=O)N(c1ccc2oc3c(c2c1)CCCC3)S(=O)(=O)c1cc(C)ccc1C", "inhibition": "14.2%"}, {"smiles": "Cc1sc2nc3ccc(N4CCCCC4)nn3c(=O)c2c1C", "inhibition": "active: 36.9%"}, {"smiles": "CCCCNc1nc2c(c(=O)n(Cc3ccc(Cl)cc3)c(=O)n2C)n1C", "inhibition": "-8.09%"}, {"smiles": "COC(=O)c1ccc(CSc2nc3c([nH]c4ccccc43)c(=O)n2-c2ccc(Cl)cc2)o1", "inhibition": "17.9%"}]}]}
